Like-named read-outs stand apart in the source and are kept apart here. Some values that stand alone complete this part of the results.
SMILES: CC1(N2Cc3c(N)cccc3C2=O)CCC(=O)NC1=O (centres unmarked) [Example 17, 3-(4-Amino-1-oxoisoindolin-2yl)-3-methylpiperidine-2,6-dione]
- melting point (recrystallized from methanol three times): 289 to 292 °C
- melting point (solid slurried in methylene chloride): 268 to 270 °C

— patent US8288415B2, “Pharmaceutical compositions of 3-(4-amino-1-oxoisoindolin-2yl)-piperidine-2,6-dione” (Celgene Corporation, priority 1999, dated 2012)
